Here are results for one molecule from patent publication US20180362645A1.

The target of this assay is hPAC1 short (hPAC1 with amino acid residues 89-109 deleted) (human), P41586. As to the kind of experiment: cell-based or functional assay.
hPAC1 short (hPAC1 with amino acid residues 89-109 deleted) (human), P41586, sequence (P41586 other isoform, or with tags, fused parts or gaps, form in doubt): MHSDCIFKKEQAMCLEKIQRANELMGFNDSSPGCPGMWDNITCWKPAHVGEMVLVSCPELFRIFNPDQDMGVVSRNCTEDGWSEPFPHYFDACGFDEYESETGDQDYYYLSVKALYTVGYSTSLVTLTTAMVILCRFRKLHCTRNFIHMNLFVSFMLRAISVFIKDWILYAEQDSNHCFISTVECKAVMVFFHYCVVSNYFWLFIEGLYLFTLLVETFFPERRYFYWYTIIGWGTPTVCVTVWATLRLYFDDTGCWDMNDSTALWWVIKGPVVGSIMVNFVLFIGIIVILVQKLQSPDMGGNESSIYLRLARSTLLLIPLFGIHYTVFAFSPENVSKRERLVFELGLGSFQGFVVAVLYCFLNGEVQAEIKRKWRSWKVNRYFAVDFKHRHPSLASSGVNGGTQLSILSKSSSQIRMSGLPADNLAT

B1: 29B (antibody, human IgG1, kappa)
heavy: QVQLVESGGGVVQPGRSLRLSCAASGFTFSRYAMHWVRQASGKGLEWVAVISYDGSNKYYADSVKGRFTISRDNSKNTLYLLMSSLRAEDTAVFYCARGYDILTGYPDYWGQGTLVTVSSASTKGPSVFPLAPSSKSTSGGTAALGCLVKDYFPEPVTVSWNSGALTSGVHTFPAVLQSSGLYSLSSVVTVPSSSLGTQTYICNVNHKPSNTKVDKKV[no letters for human IgG1 Fc with changes]
light: DIQLTQSPSFLSASVGDRVTITCRASQSIGRSLHWYQQKPGKAPKLLFKYASQSLSGVPSRFSGSGSGTEFTLTISSLQPEDFATYYCHQSSRLPFTFGPGTKVDIKRTVAAPSVFIFPPSDEQLKSGTASVVCLLNNFYPREAKVQWKVDNALQSGNSQESVTEQDSKDSTYSLSSTLTLSKADYEKHKVYACEVTHQGLSSPVTKSFNRGEC
B1 showed a short hPAC1 IC50 (cAMP assay) of 4.7 nM.
